# The supplement of paper PMC9446081
# The whole screen tested about 39,000 compounds, of which about 220 (0.56%) showed activity. The list shows a part of the results.
# System: Escherichia coli K-12 BW25113
# Assay: relative growth (OD600 normalised to plate interquartile mean) (fraction); higher = less growth inhibition, active = 0.2 or less
# Conditions: 50 µM; LB; incubation time: overnight (16-24 h)
# 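Further: static incubation at 37 °C against the wild-type strain, values averaged over two biological replicates.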
row,SMILES,relative growth
1,CC(C)c1c(CN(C)C(C)Cc2ccccc2)n(C)n(-c2ccccc2)c1=O (stereo not given),inactive: 0.998
2,Cc1noc(C)c1C(=O)N1C[C@@H]2CCN[C@@H]2C1,inactive: 1.02
3,CC(C)(C)CC(=O)N1C[C@H]2C[C@@H]1CN2,inactive: 1.02
4,Oc1ccc(Cl)cc1,inactive: 1
5,O=P1(NCCCl)OCCCN1CCCl (stereo not given),inactive: 0.905
6,CC(=O)Oc1ccc(Cl)c2cccnc12,active: 0.0572
7,CC12CCC(=O)C=C1CCC1C2CCC2(C)C(O)CCC12 (stereo not given),inactive: 1.01
8,Cn1cnc(CCN)c1,inactive: 0.962
9,O=C1NCC2(CNC2)O1,inactive: 0.873
10,Nc1ccccc1N1CCNCC1,inactive: 0.985
11,COC(=O)[C@@H]1[C@@H](CO)[C@@H]2Cn3c(cccc3=O)[C@H]1N2C(=O)C1CC1,inactive: 0.984
12,O[C@@]12CCCC[C@@H]1CNCC2,inactive: 1.03
13,C[C@@H]1O[C@@H](O[C@H]2CC[C@]3(C=O)[C@H]4CC[C@]5(C)[C@@H](C6=CC(=O)OC6)CC[C@]5(O)[C@@H]4CC[C@]3(O)C2)[C@H](O)[C@H](O)[C@H]1O,inactive: 1
14,CC(=O)O[C@@]12CO[C@@H]1C[C@H](O)[C@@]1(C)C(=O)[C@H](O)C3=C(C)[C@@H](OC(=O)[C@H](O)[C@@H](NC(=O)c4ccccc4)c4ccccc4)C[C@](O)([C@@H](OC(=O)c4ccccc4)[C@H]21)C3(C)C,inactive: 0.996
15,"CC12CCC3C(CCC4CC(=O)CCC43C)C1CCC2=O (stereo not drawn) [""5alpha-ANDROSTAN-3,17-DIONE""]",inactive: 0.862
16,Cc1cccnc1N1CCNCC1,inactive: 1.01
17,O/N=C1\CN2CCC1CC2,inactive: 0.998
18,CO[C@H]1[C@H](O)[C@@H](O[C@H]2[C@@H](C)O[C@@H](O[C@H]3[C@H](C)O[C@H](O[C@H]4CC[C@@]5(C)[C@@H](CC[C@@]6(O)[C@@H]5C[C@@H](O)[C@]5(C)[C@]6(O)CC[C@@]5(O)[C@@H](C)O)C4)C[C@@H]3OC)C[C@H]2OC)O[C@@H](C)[C@H]1O,inactive: 0.983
19,C[C@@H]1CN([C@H](C)CO)C(=O)CCCn2cc(nn2)CO[C@H]1CN(C)C(=O)Oc1ccc2ccccc2c1,inactive: 0.998
20,COCCN1[C@@H]2CC[C@H]1CN(c1ncccn1)C2,inactive: 1.03
21,C[C@H]1[C@H](O)[C@@H](C)/C=C\C=C/CC\C=C/C=C\C=C/C=C\[C@@H](O[C@@H]2O[C@H](C)[C@@H](O)[C@H](N)[C@@H]2O)C[C@H]2O[C@@](O)(C[C@@H](O)[C@@H]2C(=O)O)C[C@@H](O)[C@@H](O)CC[C@@H](O)C[C@@H](O)C[C@@H](O)CC(=O)O[C@H]1C,inactive: 1.01
22,CN(C)C(=O)Oc1ccc[n+](C)c1,inactive: 1.01
23,NCC[C@H]1COc2ccccc2O1,inactive: 0.972
24,Cc1nccc2c1[nH]c1ccccc12,inactive: 1.03
25,COC(N)=O,inactive: 0.989
26,c1ccc(-c2ccncc2)cc1,inactive: 1.01
27,CCN1CCN(c2nc([N+](=O)[O-])nn2C)CC1,inactive: 0.996
28,Nc1ncnc2c1ncn2CCOCP(=O)(O)O,inactive: 0.982

row,SMILES,relative growth
1,Nc1ccc(-c2ccc(N)cc2)cc1,inactive: 1.03
2,OCCN(CCO)CCO,inactive: 0.97
3,Cc1n[nH]c(=O)nc1N1CCN(C)CC1,inactive: 1.02
4,C[C@H](CO)N1C[C@H](C)[C@@H](CN(C)C(=O)Oc2ccc3ccccc3c2)OCc2cnnn2CCCC1=O,inactive: 1.01
5,C[C@H]1O[C@H](C[N+](C)(C)C)C[C@@H]1O,inactive: 1.01
6,C[C@@H]1CN([C@H](C)CO)C(=O)CCCn2nncc2CO[C@@H]1CN(C)C(=O)Oc1cccc2ccccc12,inactive: 1
7,Cc1csc(CCN)n1,inactive: 1.01
8,CC1=NCCN=C(C)C1N1CCOCC1,inactive: 0.862
9,CN1C[C@@H](NC(=O)C2CC2)[C@H]2OCCC[C@H]21,inactive: 0.993
10,CC1(C)[C@@H](C=C(Br)Br)[C@@H]1C(=O)O[C@@H](C#N)c1cccc(Oc2ccccc2)c1,inactive: 0.993
11,CCCNC(=O)C1=NO[C@]2(CCNC2)C1,inactive: 0.977
12,C=CCN1CCC23c4c5ccc(O)c4OC2C(=O)CCC3(O)C1C5.Cl (stereo not given),inactive: 1.11
13,c1cc2c(cc1CN1CCNCC1)OCO2,inactive: 0.976
14,NCCN1CCN(c2ccc(F)cc2)CC1,inactive: 0.993
15,CC(C)(C)[C@H]1CC[C@@]2(CC1)C[C@@H](C[Si](C)(C)C)OO2,inactive: 0.996
16,C[C@@H]1CCC(=O)O1,inactive: 0.988
17,Cc1c(N)nc([C@H](CC(N)=O)NC[C@@H](N)C(N)=O)nc1C(=O)N[C@H](C(=O)N[C@@H](C)[C@H](O)[C@@H](C)C(=O)N[C@@H](C(=O)NCCc1nc(-c2nc(C(=O)NCCC[S+](C)C)cs2)cs1)[C@@H](C)O)[C@@H](O[C@H]1O[C@H](CO)[C@H](O)[C@@H](O)[C@H]1O[C@H]1O[C@H](CO)[C@@H](O)[C@H](OC(N)=O)[C@@H]1O)c1cnc[nH]1,active: 0.0324
18,Cc1ccc(-n2nccn2)c(C(=O)N2CCN(c3nc4cc(Cl)ccc4o3)CCC2C)c1 (stereo not given),inactive: 0.992
19,O=[N+]([O-])c1cc([As](=O)(O)O)ccc1O,inactive: 1.13
20,O=C1CC2OCC=C3CN4CCC56c7ccccc7N1C5C2C3CC46.O=S(=O)(O)O (stereo not given),inactive: 1.06
21,O=C1NCN(c2ccccc2)C12CCNCC2,inactive: 0.957
22,Cl.NCC(CC(=O)O)c1ccc(Cl)cc1 (racemic),inactive: 1.03
23,CN1CCN(C(=O)[C@H]2C[C@H]3CN(c4ncccn4)C[C@@H]3N2C)CC1,inactive: 0.975
24,C#CCO[C@H]1CN2CCC1CC2,inactive: 1
25,N[C@@H](C(=O)O)c1nn[nH]n1,inactive: 1.03
26,C=C(C)[C@@H]1CCC(C)=C[C@H]1c1c(OC)cc(C)cc1OC,inactive: 0.989
27,CC(C)[C@@]1(NC(=O)[C@H]2C[C@@H]3c4cccc5[nH]cc(c45)C[C@H]3N(C)C2)O[C@@]2(O)[C@H]3CCCN3C(=O)[C@@H](Cc3ccccc3)N2C1=O,inactive: 1.02
